The source gives no read counts; variants with many changes may rest on few reads.

Among the data in the RNAGym collection of RNA variant scans (doi:10.7554/elife.90254) are self-cleavage values, retold here.

First the molecules themselves.
B1: LINE1-full (parent)
chain: UACGUAGGUGGUUUUCCCCUGAUAGUGCUAAGGGGGCCUGGAAGUUUGGACUGGGCAGAGCUCAACACAGCGUGGCAAAGUGGCUGUGGCUAGACUGCCUCUCUGGAUUCCUCGUCACUCAGCAGGGCAUCUCUGAGAGAAAUGCC

In the data set the parent is B1. The data set is described as follows: self-cleavage, relative activity (ratio to wild type); higher = more cleavage; in vitro, sequencing; the parent is a self-cleaving ribozyme.
As for CACGUAGGUGGUUUUCCCCUGAUAGUGCUAAUGGGGCCUGGAAGUUUGGACUGGGCAGAGCUCAACACAGCGUGGCAAAGUGGCUGUGGCUAGACUGCCUCUCUGGAUUCCUCGUCACUCAGCAGGGCGUCUCUGAGAGAAAUGCC, the self-cleavage amounted to 0.91.

Take UACGUAGGUGGGUUUCCCCUGAUGGUGCUAAGGGGGCCUGGAAGUUUGGACUGGGCAGAGCUCAACACAGCGUGGCAAAGUGGCUGUGGCAAGACUGCCUCUCUGGAUUCCUCGUCACUCAGCAGGGCAUCUCUGAGAGAAAUGCC: the self-cleavage was 0.75.

Regarding UACGUAGGUGGUUUUCCCCUGAUAGUGCUAAGGGGGCCUGGAAGUCCGGACUGGGCAGAGCUCAACACAGCGUGGCGAAGUGGCUGUGGCUAGACUGCCUCUCUGGAUUCCUCGUCACUCAGCAGGGCAUCUCUGAGAGAAAUGAC, the self-cleavage turned out to be 2.53.

Turning to UACGUAGGUGGGUUUCCCCUGAUAGUGCUAAGGGGGCCUGGAAGUUUGGACUGGGCGGAGCUCAACACAGCGUGGCAAAGUGGCAGUGGCUAGACUGCCUCUCUGGAUUCCUCGUCACUCAGCAGGGCAUCUCUGAGAGAAAUGCC, the self-cleavage came to 0.

Consider UACGUAGGUGGUUCUCCCCUGAAAGUGCUAAGGGGGCCUGGAAGUUUGGACUGGGCAGAACUCAACACAGCGUGGCAAAGUGGCUGUGGCUAGACUGCCUCUCUGGAUUCCUCGUCACUCAGCAGGGCAUCUCUGAGAGAAAAGCC, for which the self-cleavage stood at 0.13.

Take UACGUAGGUGGUUUUCCCCUGAUAGUGCUAAGGGGGCCUGGAAGUCUGGACUGGGCAGAGAUCAACACAGCGUGGCAAAGUGGCUGUGGCUAGACUGCCUCUCUGGACUCCUCGUCACUCAGCAGGGCAUCUCUGAGAGAAAUGCC: the self-cleavage was 0.05.

As for AACGUAGGUGGUUCUCCCCUGAUAGUGCUAAGGGGGCCUGGAAGUUUGGGCUGGGCAGAGCUCAACACAGCGUGGCAAAGUGGCUGUGGCUAGACUGCCUCUCUGGAUACCUCGUCACUCAGCAGGGCAUCUCUGAGAGAAAUGCC, the self-cleavage worked out at 1.37.

Consider UACGUAGGUGGUUUUCCCCUGAUAGUGCUAAGGGGGCCUGGAAGUUUGGACUGGGCAGAGCUCAACACAGCGAGGCAAAGUGGCUGUGGCUCGACUGCCACUCUGGAUUCCUCGUCUCUCAGCAGGGCAUCUCUGAGAGAAAUGCC, for which the self-cleavage turned out to be 0.1.

For UACGUAGGUGGUUUUCCCCUGAUAGUGCUAAGGGGGCCUGGGAGUUCGGACUGGGCAGAGCUCUACACAGCGUGGCAAAGUGGCUGUGGCUAGACUGCCUCUCUGGAUUCCUCGUCACUCAGCAGGGCAUCUCUGAGAGAAAUGCC, the self-cleavage stood at 0.9.

For the variant UACGUAGGUGGUUCUCCCCUGAUAGUGCUAAGGGGGCCUGGAAGUUUGGACCGGGCAGAGCUCAACACAGCGUGGCAAAGUGGCUGUGGCUAGACUGCCUCUCUGGAUCCCUCGUCACUCAGCAGGGCAUCUCUGAGAGAAAUGCC, the self-cleavage turned out to be 0.37.

Take UACGUAGGUGGUCUUCCCCUGAUAGUGCUAAGGGGGCCUGGAAGUUUGGACUGGGCAGAGCCCAACACAGCGUGGCAAAGUGGCUGUGGCUAGACUGCCUCUCUGGACUCCUCGUCACUCAUCAGGGCAUCUCUGAGAGAAGUGCC: the self-cleavage was determined as 0.05.

Turning to UACGUAGGUGGUUUUCCCCUGAUAGUGCUAAGGGGGCCUGGAAGCUUGGACUGGGCAGGGCUCAACACAGCGUAGCAAAGUGGCUGUGGCUAGACUGCCUCUCUGGAUUCCUCGUCACUCAGCAGGGCAUCUCUGAGAGAAAUGCC, the self-cleavage was 0.13.

Consider UACGUAGGUGGUUUUCCCCUGAUAGUGCUAAGGGGGCCUGGAAGUUUGGACUGGGCAGAGCUCAACACAGCGUGGCAAAGAGGCUGUGGCUAGACUGCCUCUCUGGAUUCCCCGUCACUCAGCAGGGCAUCUCUGAGAGAAAUCCC, for which the self-cleavage stood at 2.31.

As to UACGUAGGUGGUUUUCCCCUGAUAGUGCUAAGGGGGCCUGGAAGUUUGGACUGGGCAGAGCUCAACACAGCGUGGCAGAGUGGCUGUGGCUAGACUGCCUCUCAGGAUUCCUCGUCACUCAGCAGGGCAUCUCUGAGAGAAGUGCC, the self-cleavage amounted to 0.92.

In the case of UACGUAGGUGGUUUUCCCCUGAUAGUGCUGAGGGGGCCUGGAAGUUUGGACUGGGCAGAGCUCAACACAGCGUGGUAAGGUGGCUGUGGCUAGACUGCCUCUCUGGAUUCCUCGUCACUCAGCAGGGCAUCUCUGAGAGGGAUGCC, the self-cleavage is 2.18.

As for UACGUAGGUGGAUUUCCCCUGAUAGUGCUAGGGGGGCCUGGAAGUUUGGACUGGGCAGAGCUCAACACAGCGUGGCAAAGUGGCAGUGGCUAGACUGCCUCUCUGGAUUCCUCGUCACUCAGCAGGGCAUCUCUGAGAGAAAUGCC, the self-cleavage came out at 0.07.

UACGUAGGUGGUUUUCCCCUGAUAGUGCUAAGGGGGCCUGGAAGUUUGGACUGGGCAGAGCUCAACACAGCGUGGCAAAGUGGCUGUGGCUAGACAGCCCCUCUGGAUUCCUAGUCACCCAGCAGGGCAUCUCUGAGAGAAAUGCC: the self-cleavage was determined as 0.

In the case of UACAUAGGUGGUUUUCCCCUGUUAGUGCUAAGGGGGUCUGGAAGUUUGGACUGGGCAGAGCUCAACACAGCGUGGCGAAGUGGCUGUGGCUAGACUGCCUCUCUGGAUUCCUCGACACUCAGCAGGGCAUCUCUGAGAGAAAUGCC, the self-cleavage is 1.75.

Take UACGUAGGUGGUUUUCCCCUGAUAGCGCUAAGGGGGCCUGGAAGUUUGGACUGGGCAGAGCCCAACACAGCGUGGCAAAGAGGGUGUGGCUAGACUGCCUCUCUGGAUUCCUCGUCACUCAGCAGGGCAUCUCUGAGAGAAAUGCC: the self-cleavage came out at 0.07.

For UACGUAGGUGGUUUUCCCCUGAUAGUGCUAAGGGGGCCUGGAAGUUUGGACUGGGCAGAGCUCAACACAGCGUGGCAAAGUGGCAGUGGCUAGACUGCCUCUCUGGAUUCCUUGUCACUCAGCAGGGCACCUCUGAGAGAAAUGCC, the self-cleavage was found to be 0.07.

Turning to UACGUAGGUGGUUCUCCCCUGGUAGUGCUAAGGGGGCCUGGAAGUUUGGACUGGGCAGAGCUCAACACAGCGUGGCGAGGUGGCUGUGGCUAGACUGCCUCUCUGGAUUCCUCGUCACUCAGCAGGGCAUCUCUGAGAGAAAUGCC, the self-cleavage was 0.

As to UACGUAGGUGGUUUUCCCCUGAUAGUGCUAAGGGGGCCUGGAAGUUCGGACUGGGCAGAGCUCAACACAGCGUGGCAAAGUGGCUGUGGCUAGACUGCCUCUCUGGAUUCCUCGUCGCUCAGCAGGGCAUCUCUGGGAGAAAUGCC, the self-cleavage was 2.1.

Turning to UACGUAGGUGGUUUUCCCCUGAUAGUGCUAAGGGGGCCUGGAAGUUUGGACUGGGCAGAGCUCAACACAGCGUGGCAAAGUGGCAGUGGCUAGACUGCCUCUCUGGACUCCUCGACACUCAGCAGGGCAUCUCUGAGAGAAAUGCC, the self-cleavage stood at 0.15.

For the variant UACGUAGGUGGUUUUCCCCUGAUAGUGCUGAGGGGGCCUGGAAGUUUGGACUGGGCAGAGCUCAACGCAGCGUGGCAAAGUGGCUGUGGCUAGACUGCCUCUCUGGAUUCCUCGUCACUCAGCAGGGCAUCUCUGAGUGAAAUGCC, the self-cleavage is 0.

As to UACGUAGGUGGUUUUCCCCUGAUAGUGCUAAGGGGGCCUGGAAGUUUGGACUGGGCAGAGCUCAACACAGCGUGGCAAAGUGGCUGUGGCUAGACUGCCUCUCUGGAUUCUCCGUCACUCAGCAGGGCAACUCUGGGAGAAAUGCC, the self-cleavage was found to be 1.18.

For UACGUAGGUGGUUUUCCCCUGAUAGUGCUAAGGGGGCCUGGAAGUUUGGACUGGGCAGAGCCCAACACAGCGUGGCAAAGUAGCUGUGGCUAGACUGCCACUCUGGAUUCCUCGUCACCCAGCAGGGCAUCUCUGAGAGAAAUGCC, the self-cleavage was 0.02.

As to UACGCAGGUGGUUUCCCCCUGAGAGUGCUAAGGGGGCCUGGAAGUUUGGACUGGGCAGAGCUCAACACAGCGUGGCAAAGUAGCUGUGGCUAGACUGCCUCUCUGGAUUUCUCGUCACUCAGCAGGGCAUCCCUGAGAGAAAUGCC, the self-cleavage amounted to 0.73.

UACGUAGGUGGUUUUCCCCUGAUAGUGCUAAGGGGGCCUGGAAGUUUGGACUGGGCAGAGCUCAACACAGCGUGGCAAAAUGGCUGUGGCAAGACUGCCUCUCUGGAUUCCUCGUCACUCAGCAGGGCAUCUCUGAGUGAAAUGCC: the self-cleavage is 0.66.

Consider UACGUAGGUGGUUUUCCCCUGAUAGUGCUAAGGGGGCCUGGAAGUUUGGACUGGGCAGAGCUCAACACAGCGUGGCAGAGCGGCAGUGGCUAGACUGCCUCUCUGGAUUCCUCGUCACUCACCAGGGCAUCUCUGAGAGAAAUGCC, for which the self-cleavage turned out to be 0.03.

For UACGUAGGAGGUUUUCCCCCGAUAGUGCUAAGGGGGCCUGGAAGUUUGGACUUGGCAGAGCUCAACACAGCGUGGCAAAGUGGCUGUGGCUAGACUGCCUCUCUGGAUUCCUCGUCGCUCAGCAGGGCAUCUCUGAGAGAAAUGCC, the self-cleavage was found to be 1.56.

On to CGCGUAGGUGGUUUUCCCCUGAUAGUGCUAAGGAGGCCUGGAAGUUUGGACUGGGCAGAGCUCCACACAGCGUGGCAAAGUGGCUGUGGCUAGACUGCCUCUCUGGAUUCCCCGUCCCUCAGCAGGGCAUCUCUGAGAGAAAUGCC, for which the self-cleavage came out at 0.

For the variant UACGUAGGUGGUUUUCCCCUGGUAGUGCUAAGGGGGCCUGGAAGUUUGGACUGGGCAGAGCUCAGCACAGCGUGGCAAAGUGGCUGUGGCUAGACUGCCUCUCUGGAUUCCUCGUCACUCAGCAGGGCAUCUCUGAGAGAAAAGCC, the self-cleavage was found to be 0.

With UACGUAUGUGGUUUUCCCCUGAUAGUGCUAAUGGGGCCUGGAAGUUUGGACUGGGCAGAGCUCAACACAGCGUGGCAAAGUGGCUGUGGCUAGACCGCCUCUCUGGAUUCCUCGUCACUCAGCAGGGCAUCUCCGAGAGAAAUGCC, the self-cleavage is 0.27.

For UACGUAGCUGGUUUCCCCCUGAUAGUGCUAUGGGGGCCUGGAAGUUUGGACUGGGCAGAGCUCAACACAGCGUGGCAAAGUGGCUGAGGCUAGACUGCCUCUCUGGAUUCCUCGUCACUCAGCAGGGCAUCUCUGAGAGAAAUGCC, the self-cleavage was 0.32.

Consider UACGUAGGUGGUUUUCCCCUGAUAGUGCUAAGGGGGCCUGGAAGUUUGGACUGGGCCGAGCUCAACACAGCGUGGCAAAGUGGCUGUGGCUAGACUGCCUCCCUGGACUCCUCGUCACUCAGCAGGGCAUCUCUGAGAGAAAUGCC, for which the self-cleavage worked out at 0.

UACGUAGGUGGCUUUCCCCUGAUAGUGCUAAGGGGGCCUGGAAGUUUGGACUGGGCAGAGCUCAACACAGCGUGGCAAUGGGGCUGUGGCUAGACUGCCCCUCUGGAUUCCUCGUCACUCAGCAGGGCAUCUCUGAGAGAAAUGCC: the self-cleavage came to 1.15.

For the variant UACGUAGGUGGUUUUCCCCUGAUAGUGCUAAGGGGGCCUGGAAGUUUGGACUGUGCAGGGCUCAACACAGCGUGGCAAAGUGGCUGUGGCUAGACUGCCCCUCUGGAUUCCUCGCCACUCAGCAGGGCAUCUCUGAGAGAAAUGCC, the self-cleavage was determined as 0.25.

Turning to UACGUAGGCGGCUUUCCCCUGAUAGUGCUAAGGGGGCCUGGAAGUUUGGGCUGGGCAAAGCUCAACACAGCGUGGCAAAGUGGCUGUGGUUAGACUGCCUCUCUGGAUUCCUCGUCACUCUGCAGGGCAUCUCUGAGAGAAAUGCC, the self-cleavage amounted to 0.15.

With UACGUAGGUGGUUUUCCCCUGAUAGUGCUAAGGGGGCCUGGAAGUUUGGACUGGGCAGAGCUCAACACAGCGUGGCAAAGUGGCUGUGGCUAGACUGCCUCUCUGGAUUCCUCUUCACUCAGCGGGGCCUCUCUGAGAGAAAUGCC, the self-cleavage came to 1.7.
